73 sequences from publication PMC10726135 can be followed below.

Some of the results follow. At the low end of the ranking the order means little. Measured with an extract: partners may take part in the binding.

The target in this assay is T1, HNF4alpha2 (COS-7 nuclear extract) (UniProt P41235).
T1 sequence: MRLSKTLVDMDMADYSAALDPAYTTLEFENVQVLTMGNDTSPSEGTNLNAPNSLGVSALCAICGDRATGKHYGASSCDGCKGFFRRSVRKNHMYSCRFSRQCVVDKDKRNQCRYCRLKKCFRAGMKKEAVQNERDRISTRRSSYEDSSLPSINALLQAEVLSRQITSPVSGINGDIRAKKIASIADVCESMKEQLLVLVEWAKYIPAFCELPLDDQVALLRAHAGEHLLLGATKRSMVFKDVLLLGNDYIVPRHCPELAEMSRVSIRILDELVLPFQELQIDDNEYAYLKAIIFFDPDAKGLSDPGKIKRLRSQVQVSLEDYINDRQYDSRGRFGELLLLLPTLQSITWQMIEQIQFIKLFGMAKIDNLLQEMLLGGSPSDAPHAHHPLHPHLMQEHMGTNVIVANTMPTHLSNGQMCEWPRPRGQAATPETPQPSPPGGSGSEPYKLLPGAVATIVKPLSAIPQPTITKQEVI
In words: protein-binding microarray. As to conditions: COS-7 nuclear extract on double-stranded Agilent 4x180k PBM; binding buffer, salt, pH and temperature not given; high values mean tight binding; double strand, one strand shown; sequences stand for … in …GCCTAGGGAGATTAGAGTATCGGTCGA
On to GGAGGCTGGGGCCTCCTGGCTGGGCAGGCT, for which the binding signal (log2 normalized intensity) was -1.29. With TGCCTAGTGGAAGGTATGGAGCTAAACAAT the figure was -1.14; with TCCCTCCCCTGTGCAAACTTTTTCCTTTTC, 1.52. For CCTAGAGTTACAGTCACTCCCTATCAACCA the value was -1.13. With ACCTTGACCCAAGAAATAAAAACAGCTGGG, the binding signal (log2 normalized intensity) was -1.07. For AGCTTCAGGGATCAAATCCTAACATGCTGC the value was -1.19. For GCGTTTTTCTTTGTACTGCTTCCAAAACAT the value was 0.116; for TAGAAGGCTTAAGATAAGGGACATCAACAA, -1.2; for TTCCATGCAGCAGCATCCAGCCCCAGGCTG, -1.18.

In the case of TCTGTACAAAACATTTGGTGTAAGCACTTG, the binding signal (log2 normalized intensity) was determined as 1.03. With GCTTATGCATGGGAGATCTTCAGTAAGAGG the figure was -0.283; with CCTGGATAAGCCAGATAATTTGTGCAACAT, -1.04; with ACCCCTCCACTGGACAGCAGCTACATAAGG, 0.986. With AGGTGACTTGCCCAGACACACCTGCAATGG the figure was -1.04; with TAGAAAAGAGTTAAAAAAAAAAAAAACTAT, -1.12; with ATTAATATATTCATAACACTTGTATGACCT, 3.17.

In the case of GAGTTAATGCTGGAGTTAAAGCTTTGAGGA, the binding signal (log2 normalized intensity) worked out at 0.404. For GAAACATCCACATGTGGGTCCAAAGAACAT the value was 3.1; for CACTGCAGGATTGGAGATCTGAACTCAAGC, 0.366.

For the sequence TCGCCTCCACCTGCACCATTCTTGTCCTTT, the binding signal (log2 normalized intensity) is 2.4. For TTTCCCTGGTCGACCTCCCCGTCACCCTCC, the binding signal (log2 normalized intensity) was 4.15. For CACAGGATTTAAAGAATTCCAGACAATCTG the value was -1.18; for CTACCTTTGGACTTCTCATTACATGGGACA, 2.31; for CTGCTTCGGCCTTTGACCTCGTGATAACGA, 5.41. For GCAAGACTTTGGCCCTGCAGACTTTGCCTC the value was 3.39; for GATGAAGGTTATTCTTTCCCCTCCCTTCCA, 3.36. For CTGCCTTGGAGGTGAGGGTTACAGGTGGAC the value was 1.72; for AGTTCAGGAGGGAGGAGCATTTCACAGAAA, -1.07; for GCTGAGAGATTCCTCTGCACAATAAAACTT, -1.21.

As to AATCTCTCATCTGCCTTGTGATTTCCAAAA, the binding signal (log2 normalized intensity) was 0.602. For TGGAAACAACTGTGCAGGTGACAGAATTCC the value was -1.06; for TTTCAAGAATCTAATCAGGCCTCCCTCCCT, 3.7; for GCAAAGGTTAGCAAGGGCCCCCACTAGAGA, 0.79. With AAAGAACCATGAGAGGGTTAAAAACCAGAA, the binding signal (log2 normalized intensity) is -0.923. With AAATAAGAATGACCAGGAGTTTGGGATCAG the figure was -0.444; with GACTAGCCACAATAGGCCCTCCCAGCCTAT, -0.691.

GGTTGTGTTTGCAGTGAGTAACCTTGAGGA: the binding signal (log2 normalized intensity) stood at 1.83. With ATGTTCCCACGAAACCCTAAACCTGCAAAC the figure was -1.18; with TGTTATCAGTTAATTGCATTCTTTGATGTG, 1.95. Take AAAGGAATGCGCCTGAACTGACTGCATTCC: the binding signal (log2 normalized intensity) was -1.01. For AAATGCAGGTGAGAGGCCTCTAAGCATAAC, the binding signal (log2 normalized intensity) is -1.2. With CCTTCCCTTTCATGTTGAACGTCTTCAGAA the figure was 1.49. With AAGGAAGAGGGAAGACCAAAGGCCAAAGAG the figure was -1.16; with CAAGTTACACAAGTAGAATGAAAGCGGCTC, -0.675; with CCAGCAGCTCCAGGAGACGTAGAGATAAGG, -1.16.

Consider CTCTGAGCTTCATCCTGACCATCTGCGAAA, for which the binding signal (log2 normalized intensity) is -0.953. For ACCCTCAGGAACCAAGCATTTTGCAAGTTC the value was -1.05; for CTGAGGTGGGAGGATCGCTTGAGCCTGGGA, -0.722.

For the sequence TCTTGTAATCTGCTTCCAGTTCCATAATCC, the binding signal (log2 normalized intensity) worked out at 1.25.

In the case of AGTGGGAGTTACACTATCGGCTTCCCTGGT, the binding signal (log2 normalized intensity) is -0.916. For GATAATAAGTGACCCAGGAGGAGAAGGGTG the value was -1.05; for TCATGGCTCACTGCACCTTGACCTCCTGGG, 4.99; for GAGGTGTTCGGGGGACGGAGAGCAGGGCGT, -0.964. For ACATTCATCTGAGACTAACTGCATTTTGGA the value was 1.36; for ATGCCCCATGGTAAGAACTACAGTTGACCT, 4.18; for AATGTGATAAGAATTTTGTGCAATTACACA, -0.0257. With TACTGAAAATGACCTTTGTTCCCTGCACTT the figure was 7.15; with GGTCACAAGAGGTGCTGTGTGCCTGAGAAT, -1.08.

Regarding AAGGAACTCCATCCTCACTTTAGGTGCTCT, the binding signal (log2 normalized intensity) is -0.705. For TGCTGACCTTTAAGCCTATAGTTTCTGTTT the value was 2.74. For ACTGTAAACATCTAATGAACTGATTAGAAC the value was -0.441; for TAAAGATAAGAACGCTAGACACTGGGGACT, -1.2. With AAGAACACAGCGCAGCACACTGCAGCGGCA the figure was -1.14.

On to AGAGCAGGAATTCTGATCTTTGACCTCTCC, for which the binding signal (log2 normalized intensity) is 7.34. With TGGTGGCTTGAGTTGGAGAAGAGCAAAGAT, the binding signal (log2 normalized intensity) is -0.197. As for AGTGCCAGAGCTGTGAAGACTGCAGCAAAG, the binding signal (log2 normalized intensity) was -1.08.

On to GACTCAAATCCAAGCTGGCTGGCTTTAGAG, for which the binding signal (log2 normalized intensity) is -1.11. With TGTCCTGAGTTATTGGAAGAATGGAATTGC the figure was 1.37; with GTAACTCTGGGTCTGAGACCAAAGTCCAGA, 5.65; with GCACTAAGCCGAACGCTGGGGCAAAGGTTT, 1.75. Take ATCGGTAAATACGAATAATCATATCTGCCT: the binding signal (log2 normalized intensity) is -1.11. ACAGGATCAATAAAAGGTCCAGAGTTCACT: the binding signal (log2 normalized intensity) amounted to 3.59. For ACGGCGCTGACGCCGCCTCTGCCTCTTGAC the value was -1.21.
